Out of some 360,000 compounds screened, about 25,000 (6.9%) were called active. The inconclusive results got no clear call from the source; some entries with a clear call stand among them for comparison. Calls come from the whole dose curve; as a rule, active = well fitted inhibition curve with a large enough effect; inconclusive = small, poorly fitted or top-dose-only effect; inactive = flat fitted curve, though single readings scatter. Where the call is inconclusive, the potency comes from a doubtful curve fit.
molecular target: Luciferin 4-monooxygenase (Photinus pyralis) (UniProt P08659); assay: qHTS profiling assay for firefly luciferase inhibitor/activator using purifed enzyme and Km concentrations of substrates (counterscreen for miR-21 project); conditions: purified FLuc, luminescence inhibition; series mostly up to 57.5 µM; activity change, negative = inhibition: at the top concentration; note: nearly all actives have a fitted effect of over 55% in size;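 for activity change, negative = inhibition: plate controls were vehicle for no effect and reference inhibitor for full effect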
Chain of UniProt P08659 (P08659 whole entry, looked up): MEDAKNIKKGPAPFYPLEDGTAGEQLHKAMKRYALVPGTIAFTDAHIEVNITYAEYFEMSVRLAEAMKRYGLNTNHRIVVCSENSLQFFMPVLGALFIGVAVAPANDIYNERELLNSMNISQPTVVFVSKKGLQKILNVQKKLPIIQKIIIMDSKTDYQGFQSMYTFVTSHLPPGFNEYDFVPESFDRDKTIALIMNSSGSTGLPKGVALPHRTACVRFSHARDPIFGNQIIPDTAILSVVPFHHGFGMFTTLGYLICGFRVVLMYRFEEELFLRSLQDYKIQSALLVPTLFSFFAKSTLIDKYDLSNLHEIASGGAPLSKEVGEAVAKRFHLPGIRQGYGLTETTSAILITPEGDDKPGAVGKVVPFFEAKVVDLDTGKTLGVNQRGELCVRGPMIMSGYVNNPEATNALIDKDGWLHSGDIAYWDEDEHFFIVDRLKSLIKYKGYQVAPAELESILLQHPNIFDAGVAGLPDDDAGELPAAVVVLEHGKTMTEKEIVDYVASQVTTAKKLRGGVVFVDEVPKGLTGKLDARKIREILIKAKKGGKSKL
In short: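 Purified P. pyralis luciferase (10nM final) with 10uM D-luciferin and 10uM ATP (Km levels) in 50mM Tris acetate pH 7.5, 10mM Mg acetate, 0.01% Tween-20, 0.05% BSA; qHTS 6-point titration, ~60 µM downward; luminescence read.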
Potency is the fitted concentration of half-maximal effect; tags give direction and shape of the fitted curve.

SMILES | Potency | activity change, negative = inhibition
CCc1cccc(NC(=O)c2cc(OC)c(OC)c(OC)c2)c1 | inconclusive: 37.9 µM [inhibitor, partial curve, poor fit] | 
CC1CCCCN1CCCNC(=O)c1ccc2c(c1)sc1nc(-c3ccc(F)cc3)cn12 (stereo not drawn) |  | inactive: -6.45%
C/C(CC1CC(COCCC(C)C)OC1=O)=N\NC(N)=S (stereo not drawn) |  | inactive: 1.47%
COc1ccc(NC(=O)c2cc(F)cc(F)c2)cc1Cl | inconclusive: 9.53 µM [inhibitor, partial curve] | 
Cc1ccc(OCc2ccoc2C(=O)O)cc1C | active: 19 µM | 
CC/C(=N\Nc1ccnc2cc(Cl)ccc12)c1ccc(O)cc1 | inconclusive: 23.9 µM [inhibitor, partial curve, poor fit] | 
O=C(Nc1ccc(-c2cn3c(n2)SCC3)cc1)c1ccco1 | active: 8.49 µM | 
CN1C(=O)/C(=C/C=C2\SCCN2C)SC1=S | active: 1.9 µM | 
Cc1cc(NC(=O)c2ccc(C)o2)no1 | inconclusive: 37.9 µM [inhibitor, partial curve, poor fit] | 
C/C(=N\Nc1ccc(C)c(Cl)c1)c1cccnc1 | active: 15.1 µM | 
c1ccc(Nc2cccc3c(Nc4ccccc4)cccc23)cc1 | inconclusive: 13.5 µM [inhibitor, partial curve, poor fit] | 
O=C(N/N=C/c1ccc(Cl)cc1Cl)c1n[nH]c2c1CCCC2 | inconclusive: 1.69 µM [inhibitor, full curve] | 
c1ccc(CCc2nn3c(C4COc5ccccc5O4)nnc3s2)cc1 (stereo not drawn) | inconclusive: 30.1 µM [inhibitor, partial curve, poor fit] | 
Cc1ccc(-n2cc3ccc([N+](=O)[O-])cc3n2)cc1 | active: 0.953 µM | 
COC(=O)c1cc2cc(OC)ccc2n1C | inconclusive: 33.8 µM [inhibitor, single point] | 
COc1cc(/C=C/c2nc3cc(Cl)ccc3c(=O)n2-c2cccc(C(F)(F)F)c2)cc(OC)c1OC |  | inactive: -1.52%
N/C(=N\OC(=O)N1CCOCC1)c1ccc(Br)cc1 | inconclusive: 30.1 µM [inhibitor, single point] | 
O=C(CSc1nc2ccccc2o1)Nc1ccccc1 | inconclusive: 21.3 µM [inhibitor, single point] | 
Cc1ccc2oc(C(=O)N(C)Cc3ccon3)c(C)c2c1 | active: 10.7 µM | 
CN(C)S(=O)(=O)c1ccc(-c2ccccc2)cc1 |  | inactive: -15%
COc1ccccc1NC(=O)c1ccc(CSc2ncccn2)cc1 | active: 16.9 µM | 
c1ccc(CCn2nnc3ccccc32)cc1 | active: 10.7 µM | 
CCC1Oc2ccc(C)cc2N(CC(=O)NCC2CCCO2)C1=O (stereo not drawn) |  | inactive: -1.33%
C/C(=N\Nc1cccc(C(=O)O)c1)c1cc2ccccc2o1 | active: 10.7 µM | 
CS(=O)(=O)c1ccccc1-c1nnc(-c2ccc(Cl)cc2)o1 | inconclusive: 37.9 µM [inhibitor, partial curve, poor fit] | 
Cc1nnc(SCCC(=O)Nc2nc(-c3ccccc3)ns2)s1 |  | inactive: -13.1%
O=C1N=C(N2CCCCC2)S/C1=C/C1=Cc2ccccc2OC1 | active: 2.39 µM | 

SMILES | Potency | activity change, negative = inhibition
CCOC(=O)Cc1csc(NC(=O)c2cc(=O)c3ccccc3o2)n1 | active: 16.9 µM | 
Cc1ccc2nc(-c3ccc(Cl)c(NC(=O)c4cccc([N+](=O)[O-])c4C)c3)oc2c1 |  | inactive: -19.8%
CCc1ccc(NC(=O)CSc2ccc(-c3ccco3)nn2)cc1 | inconclusive: 9.53 µM [inhibitor, partial curve] | 
CNC(C)C#Cc1ccc2c(=O)c3c(OC)cccc3oc2c1 (stereo not drawn) | active: 23.9 µM | 
Cn1c(SCc2ccccc2)nnc1-c1ccc2c(c1)OCO2 | inconclusive: 19 µM [inhibitor, partial curve] | 
CCC(C)C(=O)OCC1(c2ccc(C)cc2OC(=O)C(C)C)CO1 (stereo not drawn) |  | inactive: 0.0414%
COc1cccc(CNc2ccc(N3CCCCC3)cc2)c1OC | inconclusive: 26.9 µM [inhibitor, single point] | 
CCOC(=O)c1c(NC(=O)/C=C/c2ccco2)sc(C)c1C |  | inactive: -11%
COC(=O)CN(C)C(=O)c1ccc(OC)c(OC2CCN(C(C)C)CC2)c1 |  | inactive: -1.94%
Cc1ccc2nc(-c3ccccc3)c(CC(=O)O)c(C(=O)O)c2c1 | inconclusive: 37.9 µM [inhibitor, partial curve, poor fit] | 
Cc1nn(CCCC(=O)NCc2cccc(Cl)c2)c(=O)c2c1sc1ccccc12 | inconclusive: 7.57 µM [inhibitor, full curve] | 
c1ccc(CNc2ncnc3c2cnn3-c2ccccc2)cc1 | inconclusive: 9.53 µM [inhibitor, partial curve] | 
O=c1n(Cc2ccc(F)cc2)nc2n1-c1cc(Cl)ccc1OC2 |  | inactive: 0.409%
Cn1c(NC(=O)/C=C/c2c(F)cccc2Cl)cc(=O)n(C)c1=O |  | inactive: -1.78%
CCN(C(=O)c1cccn(Cc2ccccc2C)c1=O)c1ccccc1 |  | inactive: 4.46%
O=C(NCc1ccccn1)Nc1cc(Cl)cc(Cl)c1 |  | inactive: 1.63%
O=C(COC(=O)c1cnccn1)N=c1sccn1Cc1ccccc1Cl |  | inactive: -1.57%
C=CCn1c(=O)c2ccccc2n2c(SCC(=O)Nc3sc(C)c(CC)c3C(=O)OCC)nnc12 |  | inactive: 2.23%
CC(C(=O)OCc1nnc(-c2ccccc2)o1)N1C(=O)c2ccccc2C1=O (stereo not drawn) | inconclusive: 23.9 µM [inhibitor, single point] | 
CC1(c2ccccc2)NC(=O)N(CC(=O)NNC(=O)c2ccccc2)C1=O (stereo not drawn) |  | inactive: -0.483%
CCn1ccc(C(=O)Oc2ccc(C(C)C)cc2)n1 | active: 2.69 µM | 
COc1ccc(N/N=C/c2c(C(=O)O)ccc3ccccc23)cc1 | active: 9.53 µM | 
CC(C)c1ccc(NC(=O)COc2ccccc2)cc1 | active: 16.9 µM | 
CCCN1CCC(=O)N([C@H](CSc2ccccc2)c2ccccc2)CC1 | inconclusive: 26.9 µM [inhibitor, partial curve] | 
Cc1cccc(OCC(=O)Nc2ccc3c(c2)nc2n3CCOC2)c1 | inconclusive: 37.9 µM [inhibitor, single point] | 
CCn1c(SCC(=O)Nc2sc3c(c2C#N)CCCC3)nnc1-c1ccncc1 | inconclusive: 23.9 µM [inhibitor, single point] | 
